{"source": "PubChem BioAssay AID1508624", "about": "(National Center for Advancing Translational Sciences (NCATS), 2021)", "note": "Out of some 48,000 compounds screened, about 120 (0.25%) were called active. Inconclusive results (about 4%) are left out. The call rests on the fitted dose curve; in most records, active means well fitted activation curve with a large enough effect; inconclusive means small, poorly fitted or top-dose-only effect, or another doubt; inactive means no such curve, though single readings can be large or run the other way. The list shows a part of the results, in another mix than the full data. Where no call is shown, the source filed none.", "data": [{"assay": "Primary qHTS for Identification of Small Molecule Activators of Huntingtin-Antisense Promoter Activity; further: nearly all actives have a fitted effect of over 55% in size", "conditions": "HEK293 HTT-AS promoter firefly luciferase reporter, 24 h; activity change, positive = activation: at 57.5 µM (top of the series), percent change from vehicle, -100% = no light", "outline": "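HEK293 luciferase promoter-reporter cells (2,500/well) plated 24 h, then compounds added at up to 57.5 uM final for 24 h at 37 °C. Firefly luminescence by Dual-Glo, normalized to vehicle (0%) and zero RLU (-100%).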", "values": [{"smiles": "Cc1c(CCC(=O)NCCc2ccccc2F)c(=O)oc2cc(O)ccc12", "activity change, positive = activation": "-9.28%"}, {"smiles": "O=S1(=O)N=C(Nc2cccc(C(F)(F)F)c2)c2ccccc21", "activity change, positive = activation": "-19.4%"}, {"smiles": "COc1cccc([C@H]2Nc3ccc(S(=O)(=O)Nc4cc(C)ccc4C)cc3[C@H]3C=CC[C@H]32)c1", "activity change, positive = activation": "-2.75%"}, {"smiles": "Cc1cc(C)c(OCC(=O)Nc2cccc(-c3nc4ncccc4o3)c2)c(Br)c1", "activity change, positive = activation": "-15.2%"}, {"smiles": "COc1ccc(C2=C(N3CCN(c4cc(Cl)ccc4C)CC3)c3ccccc3C2=O)cc1", "activity change, positive = activation": "22.8%"}, {"smiles": "COc1ccc(NC(=O)c2c(C)oc3ccc(O)c(CN4CCCC(C)C4)c23)cc1", "note": "(stereo unspecified)", "activity change, positive = activation": "-6.33%"}, {"smiles": "Cc1ccc(S(=O)(=O)Nc2cc3c(C(=O)OCc4ccccc4)c(C)oc3c3ccccc23)cc1", "activity change, positive = activation": "-12%"}, {"smiles": "O=C(Nc1ccc2oc(-c3cc(Br)ccc3Cl)nc2c1)c1ccc2ccccc2c1", "activity change, positive = activation": "inactive: -36.2%"}, {"smiles": "O=C(CSc1nc(-c2ccco2)nc2cc(=O)[nH]n12)Nc1ccccc1F", "activity change, positive = activation": "-7.42%"}, {"smiles": "Cc1cnc(-c2cnc(NCCNc3ccc(C#N)cn3)nc2-c2ccc(Cl)cc2Cl)[nH]1", "activity change, positive = activation": "inactive: -21.4%"}, {"smiles": "COc1ccc(C)cc1S(=O)(=O)Nc1cccc(-c2ccc(N3CCCC3)nn2)c1", "activity change, positive = activation": "7.69%"}, {"smiles": "O=S(=O)(Nc1ccc(-c2ccc(N3CCCCCC3)nn2)cc1)c1ccc(C(F)(F)F)cc1", "activity change, positive = activation": "-3.34%"}, {"smiles": "CCOC(=O)c1ccc2ncc(C(=O)OCC)c(NCCc3ccc(OC)c(OC)c3)c2c1", "activity change, positive = activation": "inactive: -18.4%"}, {"smiles": "Cc1csc2nc(-c3cccc(NC(=O)c4ccccc4F)c3)cn12", "activity change, positive = activation": "inactive: 17.5%"}, {"smiles": "CCCOc1ccc(CNC(=O)Cn2c(=O)oc3ccccc32)cc1", "activity change, positive = activation": "-8.65%"}, {"smiles": "CC(=O)c1ccc(NC(=O)CN2C(=O)c3cccnc3Sc3ccccc32)cc1", "activity change, positive = activation": "inactive: 17%"}, {"smiles": "CCOC(=O)c1ccc(N2CCN(c3cccc(Cl)c3)CC2)c(NC(=O)Nc2ccc(Cl)cc2)c1", "activity change, positive = activation": "-10.7%"}, {"smiles": "Cc1c(CC(=O)N2CCCCC2)c(=O)oc2c(C)c(O)ccc12", "activity change, positive = activation": "-0.0899%"}, {"smiles": "CCc1nc2sc3c(N4CCC(C)CC4)ncnc3c2c2c1CCCC2", "activity change, positive = activation": "2.92%"}, {"smiles": "O=S(=O)(Nc1cccc(-c2ccc(N3CCCCCC3)nn2)c1)c1ccccc1F", "activity change, positive = activation": "38.9%"}, {"smiles": "Cc1ccc(OCCCC(=O)Nc2sc3c(c2C(N)=O)CCC(C)C3)cc1", "note": "(stereo unspecified)", "activity change, positive = activation": "-9.76%"}, {"smiles": "COc1cccc(CNC(=O)CCc2c(C)nn(-c3ccc(N4CCCC4)nn3)c2C)c1", "activity change, positive = activation": "-2.81%"}, {"smiles": "Cc1cccc(OCC(=O)Nc2ccc3nc(SCc4ccccc4)sc3c2)c1", "activity change, positive = activation": "inactive: 14%"}, {"smiles": "COc1cc2c(cc1OC)[C@@H]1Cc3ccc(OC)c(OC)c3CN1CC2", "activity change, positive = activation": "inactive: -9.9%"}, {"smiles": "Cc1ccc2nc(Nc3cccc(C(F)(F)F)c3)c3nnnn3c2c1", "activity change, positive = activation": "5.33%"}, {"smiles": "CCc1c(C)sc(NC(=O)c2cc(-c3ccc(OC)c(OC)c3)on2)c1C#N", "activity change, positive = activation": "5.29%"}, {"smiles": "O=C(CN1C(=O)COc2ccc(Cl)cc21)Nc1cccc(C(=O)O)c1", "activity change, positive = activation": "5.91%"}, {"smiles": "COc1ccc(NC(=O)CN2C(=O)C(=O)c3ccccc32)c(OC)c1", "activity change, positive = activation": "-4.21%"}, {"smiles": "Cc1cccc(OCCSc2nc(-c3cccs3)nc3cc(=O)[nH]n23)c1", "activity change, positive = activation": "-4.17%"}, {"smiles": "CCOc1ccccc1CN1CCc2nc(N3CCN(c4ccccc4F)CC3)ncc2C1", "activity change, positive = activation": "inactive: -51.4%"}, {"smiles": "O=C1C(=O)N(C2CCN(C(=O)c3ccc(Cl)cc3)CC2)CCN1Cc1ccc(F)cc1", "activity change, positive = activation": "6.58%"}, {"smiles": "Cc1ccccc1NC(=O)c1c(C)oc2ccc(O)c(CN3CCCC3)c12", "activity change, positive = activation": "-2.15%"}, {"smiles": "COc1cccc(-c2cc(C(=O)Nc3cc(C)nn3-c3ccccc3)no2)c1", "activity change, positive = activation": "-4.42%"}, {"smiles": "O=c1c2sc3ccccc3c2n(Cc2cccc(C(F)(F)F)c2)c(=O)n1Cc1ccccc1", "activity change, positive = activation": "inactive: -30.4%"}, {"smiles": "CCc1ccc(S(=O)(=O)Nc2cccc(-c3ccc(N4CCC(C)CC4)nn3)c2)s1", "activity change, positive = activation": "40.3%"}, {"smiles": "CCc1ccc(CNC(=O)c2cnc3sc(N4CCCCC4)nn3c2=O)cc1", "activity change, positive = activation": "-11.1%"}, {"smiles": "CCOC(=O)c1ccc(N2CCN(c3ccccc3OC)CC2)c(NC(=O)Nc2ccc(CC)cc2)c1", "activity change, positive = activation": "1.58%"}, {"smiles": "COc1ccc(N2CCN(CCCNC(=O)c3cnn(-c4ccc(C)cc4)c3-n3cccc3)CC2)cc1", "activity change, positive = activation": "-13.5%"}, {"smiles": "O=C(Nc1ccccc1C(F)(F)F)c1noc2c1CCCC2", "activity change, positive = activation": "83.3%"}, {"smiles": "CCOC(=O)c1cc(C)n(CC2CCC(C(=O)Nc3ccc(OC)c(OC)c3)CC2)c1C", "note": "(stereo unspecified)", "activity change, positive = activation": "-13.8%"}, {"smiles": "Cc1cc(C)cc(NS(=O)(=O)c2c(C)nc3scc(C)n3c2=O)c1", "activity change, positive = activation": "-8.41%"}, {"smiles": "CCCOc1ccc(NC(=O)CC2C(=O)N(c3ccc(OC)cc3)C(=O)N2CCc2ccncc2)cc1", "note": "(stereo unspecified)", "activity change, positive = activation": "-2.59%"}, {"smiles": "Cc1nn(-c2ccc(N3CCCCC3)nn2)c(C)c1CCC(=O)NCc1ccccc1", "activity change, positive = activation": "25%"}, {"smiles": "Cc1ccc2c(=O)cc(C(=O)Nc3ccc(S(=O)(=O)N4CCCCCC4)cc3)oc2c1", "activity change, positive = activation": "inactive: -9.13%"}, {"smiles": "CCc1cc(=O)oc2c(C)c3c(cc12)CN(CCc1ccccc1OC)CO3", "activity change, positive = activation": "-6.26%"}, {"smiles": "O=C(Nc1cccc(Cl)c1)c1cc(-c2ccc3c(c2)OCO3)on1", "activity change, positive = activation": "101%"}, {"smiles": "Cc1ccc(NC(=O)CSc2nc(-c3ccco3)nc3cc(=O)[nH]n23)cc1", "activity change, positive = activation": "-14.9%"}, {"smiles": "Cc1ccccc1CCNC(=O)c1ccc2c(c1)nc1n2CCCCC1", "activity change, positive = activation": "inactive: -55.1%"}, {"smiles": "CCOC(=O)c1cccc(NC(=O)c2cnc3sc(N4CCOCC4)nn3c2=O)c1", "activity change, positive = activation": "-6.63%"}, {"smiles": "Cc1cc(OCCCc2c(C(=O)O)n(Cc3cccnc3)c3c(-c4c(COc5ccc(N6CCN([S+](C)(=O)[O-])CC6)cc5)nn(C)c4C)cccc23)cc(C)c1Cl", "activity change, positive = activation": "inactive: -29.1%"}, {"smiles": "CCOc1ccc(NC(=O)N2CCN3CCCCC3C2)cc1", "note": "(stereo unspecified)", "activity change, positive = activation": "5.47%"}, {"smiles": "COc1ccc(C2C(=O)N(C3CCC(C)CC3)CC(=O)N2C2CCCC2)cc1OC", "note": "(stereo unspecified)", "activity change, positive = activation": "-8.2%"}, {"smiles": "COc1ccc(C(CC(=O)Nc2cc(OC)c(OC)c(OC)c2)N2Cc3ccccc3C2=O)cc1", "note": "(stereo unspecified)", "activity change, positive = activation": "-27.6%"}, {"smiles": "O=C(Nc1cnn(Cc2ccc(Cl)cc2Cl)c1)c1noc2c1CCc1ccccc1-2", "activity change, positive = activation": "-13.6%"}, {"smiles": "O=C(NCCc1ccccc1)c1cnc2sc(N3CCCCC3)nn2c1=O", "activity change, positive = activation": "-3.8%"}, {"smiles": "COc1ccc(CCNS(=O)(=O)c2ccc(N3CCCCS3(=O)=O)cc2)cc1", "activity change, positive = activation": "inactive: -28.6%"}, {"smiles": "COc1ccc(C2=C(N3CCN(c4cccc(C)c4C)CC3)c3ccccc3C2=O)cc1", "activity change, positive = activation": "6.91%"}, {"smiles": "CCc1ccc(NC(=O)CN2C(=O)c3cccc4cccc2c34)cc1", "activity change, positive = activation": "4.34%"}, {"smiles": "COc1ccc(Br)cc1CNC(=O)c1cnc2sc(N3CCC(C)CC3)nn2c1=O", "activity change, positive = activation": "3.46%"}, {"smiles": "COc1cc(Cl)c(NC(=O)c2cc3ccccn3n2)c(OC)c1", "activity change, positive = activation": "63.8%"}, {"smiles": "CCOc1ccc(-c2cn3c(n2)sc2cc(C(=O)NCCCN4CCCCC4)ccc23)cc1", "activity change, positive = activation": "inactive: -18%"}]}]}
